Measurements: publication PMC9911399, “Two distinct binding modes provide the RNA-binding protein RbFox with extraordinary sequence specificity”
Numbering of substitutions follows the chain as printed; changes in the protein carry UniProt numbers. The list shows a part of the results.

T1: RBFOX1 RRM (Homo sapiens, UniProt Q9NWB1 109-208)
T1 sequence: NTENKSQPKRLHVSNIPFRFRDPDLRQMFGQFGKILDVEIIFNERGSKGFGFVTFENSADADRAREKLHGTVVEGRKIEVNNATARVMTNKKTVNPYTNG

B1: AGGCCGU (DNA:RNA)
RNA: GGGAGACCGGAAUUCAGAUUGUCCAGGCCGUUUAAAUCCCGUCGUAGCCACCA
DNA 1: CAATCTGAATTCCGGTCTCCC
DNA 2: TGGTGGCTACGACGGGATT
B2: GUCUUAA (DNA:RNA)
RNA: GGGAGACCGGAAUUCAGAUUGUCCGUCUUAAUUAAAUCCCGUCGUAGCCACCA
DNA 1: CAATCTGAATTCCGGTCTCCC
DNA 2: TGGTGGCTACGACGGGATT
B3: ACCAGGC (DNA:RNA)
RNA: B1 RNA with G26C, G27C, C28A, C29G, U31C
DNA 1: CAATCTGAATTCCGGTCTCCC
DNA 2: TGGTGGCTACGACGGGATT
B4: ACUAAAG (DNA:RNA)
RNA: B1 RNA with G26C, G27U, C28A, C29A, G30A, U31G
DNA 1: CAATCTGAATTCCGGTCTCCC
DNA 2: TGGTGGCTACGACGGGATT
B5: ACGCGUU (DNA:RNA)
RNA: B1 RNA with G26C, C29G, G30U
DNA 1: CAATCTGAATTCCGGTCTCCC
DNA 2: TGGTGGCTACGACGGGATT
B6: UCGUCAG (DNA:RNA)
RNA: B1 RNA with A25U, G26C, C28U, G30A, U31G
DNA 1: CAATCTGAATTCCGGTCTCCC
DNA 2: TGGTGGCTACGACGGGATT
B7: CUGGGGG (DNA:RNA)
RNA: B1 RNA with A25C, G26U, C28G, C29G, U31G
DNA 1: CAATCTGAATTCCGGTCTCCC
DNA 2: TGGTGGCTACGACGGGATT
B8: AUUCAGA (DNA:RNA)
RNA: B1 RNA with G26U, G27U, C29A, U31A
DNA 1: CAATCTGAATTCCGGTCTCCC
DNA 2: TGGTGGCTACGACGGGATT
B9: AUGACCA (DNA:RNA)
RNA: B1 RNA with G26U, C28A, G30C, U31A
DNA 1: CAATCTGAATTCCGGTCTCCC
DNA 2: TGGTGGCTACGACGGGATT
B10: GCGUGUU (DNA:RNA)
RNA: B1 RNA with A25G, G26C, C28U, C29G, G30U
DNA 1: CAATCTGAATTCCGGTCTCCC
DNA 2: TGGTGGCTACGACGGGATT
B11: ACGACGC (DNA:RNA)
RNA: B1 RNA with G26C, C28A, U31C
DNA 1: CAATCTGAATTCCGGTCTCCC
DNA 2: TGGTGGCTACGACGGGATT
B12: CGAUGGA (DNA:RNA)
RNA: B1 RNA with A25C, G27A, C28U, C29G, U31A
DNA 1: CAATCTGAATTCCGGTCTCCC
DNA 2: TGGTGGCTACGACGGGATT
B13: GGCUCUU (DNA:RNA)
RNA: B1 RNA with A25G, G27C, C28U, G30U
DNA 1: CAATCTGAATTCCGGTCTCCC
DNA 2: TGGTGGCTACGACGGGATT
B14: UGAUUCA (DNA:RNA)
RNA: B2 RNA with G25U, U26G, C27A, A30C
DNA 1: CAATCTGAATTCCGGTCTCCC
DNA 2: TGGTGGCTACGACGGGATT
B15: GAUCUUC (DNA:RNA)
RNA: B2 RNA with U26A, C27U, U28C, A30U, A31C
DNA 1: CAATCTGAATTCCGGTCTCCC
DNA 2: TGGTGGCTACGACGGGATT
B16: GACAAUU (DNA:RNA)
RNA: B2 RNA with U26A, U28A, U29A, A30U, A31U
DNA 1: CAATCTGAATTCCGGTCTCCC
DNA 2: TGGTGGCTACGACGGGATT
B17: GCGACUU (DNA:RNA)
RNA: B1 RNA with A25G, G26C, C28A, G30U
DNA 1: CAATCTGAATTCCGGTCTCCC
DNA 2: TGGTGGCTACGACGGGATT
B18: UCCCCUG (DNA:RNA)
RNA: B1 RNA with A25U, G26C, G27C, G30U, U31G
DNA 1: CAATCTGAATTCCGGTCTCCC
DNA 2: TGGTGGCTACGACGGGATT
B19: CGCAAGU (DNA:RNA)
RNA: B1 RNA with A25C, G27C, C28A, C29A
DNA 1: CAATCTGAATTCCGGTCTCCC
DNA 2: TGGTGGCTACGACGGGATT
B20: UCUGUUC (DNA:RNA)
RNA: B2 RNA with G25U, U26C, C27U, U28G, A30U, A31C
DNA 1: CAATCTGAATTCCGGTCTCCC
DNA 2: TGGTGGCTACGACGGGATT
B21: UCUCGCC (DNA:RNA)
RNA: B1 RNA with A25U, G26C, G27U, C29G, G30C, U31C
DNA 1: CAATCTGAATTCCGGTCTCCC
DNA 2: TGGTGGCTACGACGGGATT
B22: UCGAAUA (DNA:RNA)
RNA: B1 RNA with A25U, G26C, C28A, C29A, G30U, U31A
DNA 1: CAATCTGAATTCCGGTCTCCC
DNA 2: TGGTGGCTACGACGGGATT
B23: AUAUUUC (DNA:RNA)
RNA: B2 RNA with G25A, C27A, A30U, A31C
DNA 1: CAATCTGAATTCCGGTCTCCC
DNA 2: TGGTGGCTACGACGGGATT
B24: UAUAGUA (DNA:RNA)
RNA: B2 RNA with G25U, U26A, C27U, U28A, U29G, A30U
DNA 1: CAATCTGAATTCCGGTCTCCC
DNA 2: TGGTGGCTACGACGGGATT
B25: AGCUGUU (DNA:RNA)
RNA: B1 RNA with G27C, C28U, C29G, G30U
DNA 1: CAATCTGAATTCCGGTCTCCC
DNA 2: TGGTGGCTACGACGGGATT
B26: GAGAAUU (DNA:RNA)
RNA: B1 RNA with A25G, G26A, C28A, C29A, G30U
DNA 1: CAATCTGAATTCCGGTCTCCC
DNA 2: TGGTGGCTACGACGGGATT
B27: GUAGUCC (DNA:RNA)
RNA: B2 RNA with C27A, U28G, A30C, A31C
DNA 1: CAATCTGAATTCCGGTCTCCC
DNA 2: TGGTGGCTACGACGGGATT
B28: GCAGCAG (DNA:RNA)
RNA: B2 RNA with U26C, C27A, U28G, U29C, A31G
DNA 1: CAATCTGAATTCCGGTCTCCC
DNA 2: TGGTGGCTACGACGGGATT
B29: GCGACAU (DNA:RNA)
RNA: B1 RNA with A25G, G26C, C28A, G30A
DNA 1: CAATCTGAATTCCGGTCTCCC
DNA 2: TGGTGGCTACGACGGGATT
B30: CCAUCUG (DNA:RNA)
RNA: B1 RNA with A25C, G26C, G27A, C28U, G30U, U31G
DNA 1: CAATCTGAATTCCGGTCTCCC
DNA 2: TGGTGGCTACGACGGGATT
B31: AACAUCU (DNA:RNA)
RNA: B1 RNA with G26A, G27C, C28A, C29U, G30C
DNA 1: CAATCTGAATTCCGGTCTCCC
DNA 2: TGGTGGCTACGACGGGATT

target: T1, RBFOX1 RRM; test: EMSA; HiTS-Eq, 1 nM pool, 10 min; buffer printed only for the single-RNA assays: 10 mM Tris pH 7.5, 150 mM NaCl, 3.4 mM EDTA, 0.001% NP-40, 30 C; details: tags: His6 N-terminal (pET28a); label: 5' 32P
Method in brief: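 Purified RbFox RRM, wild type or mutant, was incubated for 10 min in 50 µL with 1 nM of a 5′-radiolabelled RNA pool carrying 7 randomized nucleotides, whose flanks were annealed to DNA oligonucleotides, over a series of increasing protein concentrations. Unbound RNA was resolved on 8% native PAGE, cut out, reverse-transcribed, barcoded by PCR and sequenced on an Illumina HiSeq 2500. Relative association constants were derived from changes in read counts for each RNA species versus the control reaction and normalised to the cognate motif.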

Question: How did the binding signal turn out when B1 was run?
Answer: Its binding signal is 0.0103 KA relative to UGCAUGU.

Question: B2 was tested. Which binding signal did it give?
Answer: Its binding signal is 0.00558 KA relative to UGCAUGU.

Question: Which binding signal does the source give for B3 here?
Answer: Its binding signal is 0.00626 KA relative to UGCAUGU.

Question: How did the binding signal turn out when B4 was run?
Answer: The binding signal was 0.00323 KA relative to UGCAUGU.

Question: Which binding signal does the source give for B5 here?
Answer: The binding signal was 0.0089 KA relative to UGCAUGU.

Question: How did the binding signal turn out when B6 was run?
Answer: Its binding signal is 0.0131 KA relative to UGCAUGU.

Question: With B7 as the binder, how does the binding signal read?
Answer: Its binding signal is 0.00932 KA relative to UGCAUGU.

Question: With B8 as the binder, how does the binding signal read?
Answer: Its binding signal is 0.0101 KA relative to UGCAUGU.

Question: For B9, which binding signal is on record?
Answer: The binding signal was 0.00337 KA relative to UGCAUGU.

Question: For B10, which binding signal is on record?
Answer: The binding signal was 0.0219 KA relative to UGCAUGU.

Question: Which binding signal does the source give for B11 here?
Answer: The binding signal was 0.00275 KA relative to UGCAUGU.

Question: B12 was tested. Which binding signal did it give?
Answer: The binding signal was 0.00442 KA relative to UGCAUGU.

Question: With B13 as the binder, how does the binding signal read?
Answer: The binding signal was 0.01 KA relative to UGCAUGU.

Question: B14 was tested. Which binding signal did it give?
Answer: The binding signal was 0.0154 KA relative to UGCAUGU.

Question: With B15 as the binder, how does the binding signal read?
Answer: The binding signal was 0.0194 KA relative to UGCAUGU.

Question: How did the binding signal turn out when B16 was run?
Answer: Its binding signal is 0.00391 KA relative to UGCAUGU.

Question: How did the binding signal turn out when B17 was run?
Answer: Its binding signal is 0.0138 KA relative to UGCAUGU.

Question: Which binding signal does the source give for B18 here?
Answer: The binding signal was 0.00829 KA relative to UGCAUGU.

Question: For B19, which binding signal is on record?
Answer: The binding signal was 0.014 KA relative to UGCAUGU.

Question: How did the binding signal turn out when B20 was run?
Answer: The binding signal was 0.0184 KA relative to UGCAUGU.

Question: For B21, which binding signal is on record?
Answer: The binding signal was 0.0143 KA relative to UGCAUGU.

Question: How did the binding signal turn out when B22 was run?
Answer: The binding signal was 0.00387 KA relative to UGCAUGU.

Question: Which binding signal does the source give for B23 here?
Answer: The binding signal was 0.00468 KA relative to UGCAUGU.

Question: B24 was tested. Which binding signal did it give?
Answer: The binding signal was 0.0114 KA relative to UGCAUGU.

Question: With B25 as the binder, how does the binding signal read?
Answer: Its binding signal is 0.0136 KA relative to UGCAUGU.

Question: With B26 as the binder, how does the binding signal read?
Answer: Its binding signal is 0.00866 KA relative to UGCAUGU.

Question: Which binding signal does the source give for B27 here?
Answer: Its binding signal is 0.00967 KA relative to UGCAUGU.

Question: With B28 as the binder, how does the binding signal read?
Answer: The binding signal was 0.011 KA relative to UGCAUGU.

Question: How did the binding signal turn out when B29 was run?
Answer: Its binding signal is 0.00923 KA relative to UGCAUGU.

Question: How did the binding signal turn out when B30 was run?
Answer: Its binding signal is 0.00387 KA relative to UGCAUGU.

Question: How did the binding signal turn out when B31 was run?
Answer: The binding signal was 0.00023 KA relative to UGCAUGU.
